Measured values: the supplement of paper PMC4604168 (melanoma cell lines)
Some of the results follow. Most values come without repeats; read them as rough.

Key:
Experiment in all cases: cell count relative to DMSO control; melanoma cells; higher = more viable cells
Details in all cases: library dose: low library concentration; 72 h
MZ2-MEL = test system: MZ2-MEL
MeWo = test system: MeWo
RPMI7951 = test system: RPMI7951
RVH-421 = test system: RVH-421
SkMel28 = test system: SkMel28
SkMel2 = test system: SkMel2
SkMel30 = test system: SkMel30
SkMel5 = test system: SkMel5
UACC257 = test system: UACC257
UACC62 = test system: UACC62
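Further: cell number obtained by counting DAPI-stained nuclei in high-throughput microscope images with image analysis software, screen run in 1,536-well plates.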

Structure (SMILES)	cell count (MZ2-MEL) [%]	cell count (MeWo) [%]	cell count (RPMI7951) [%]	cell count (RVH-421) [%]	cell count (SkMel28) [%]	cell count (SkMel2) [%]	cell count (SkMel30) [%]	cell count (SkMel5) [%]	cell count (UACC257) [%]	cell count (UACC62) [%]
CNC(=O)c1cc(Oc2ccc(NC(=O)Nc3ccc(Cl)c(C(F)(F)F)c3)cc2)ccn1 [sorafenib] + c1cc(-c2cnn3cc(-c4ccc(OCCN5CCCCC5)cc4)cnc23)ccn1 [Dorsomorphin] (first compound 0.4 µM, partner dose 0.4 µM)	99.2	92.4	76.2	83.7	109	103	88.9	87.3	77.6	93.1
CS(=O)(=O)CCNCc1ccc(-c2ccc3ncnc(Nc4ccc(OCc5cccc(F)c5)c(Cl)c4)c3c2)o1 [lapatinib] + Oc1nc(-c2ccc(C(F)(F)F)cc2)nc2c1CSCC2 [XAV939] (first compound 0.8 µM, partner dose 2 µM)	89.2	100	88.8	87.8	88.1	93.5	81.9	82.8	84.5	96.3
CNC(=O)c1cc(Oc2ccc(NC(=O)Nc3ccc(Cl)c(C(F)(F)F)c3)cc2)ccn1 [sorafenib] + Cn1cncc1[C@@](N)(c1ccc(Cl)cc1)c1ccc2c(c1)c(-c1cccc(Cl)c1)cc(=O)n2C [tipifarnib] (first compound 0.4 µM, partner dose 0.01 µM)	102	91.4	100	88.8	89.5	80.7	99.6	100	87.1	81.2
CNC(=O)c1cc(Oc2ccc(NC(=O)Nc3ccc(Cl)c(C(F)(F)F)c3)cc2)ccn1 [sorafenib] + CN(C)S(=O)(=O)c1ccc2c(c1)/C(=C/c1cc3c([nH]1)CCCC3)C(=O)N2 [SU6656] (first compound 0.4 µM, partner dose 0.4 µM)	104	93.8	112	96	74.3	95.1	98	88.6	63.8	90.4
C[C@@H](Oc1cc(-c2cnn(C3CCNCC3)c2)cnc1N)c1c(Cl)ccc(F)c1Cl [Crizotinib] + Cc1cc(N2CCOCC2)cc2[nH]c(-c3c(NC[C@@H](O)c4cccc(Cl)c4)cc[nH]c3=O)nc12 [BMS536924] (first compound 0.2 µM, partner dose 0.2 µM)	103	93.2	103	112	100	95.5	86.9	95.1	85.6	85.2
CN1CCN(c2ccc3nc(-c4c(N)c5c(F)cccc5[nH]c4=O)[nH]c3c2)CC1 [Dovitinib] + Cc1ccc(NC(=O)c2cccc(N(C)C)c2)cc1NC(=O)c1ccc(O)cc1 [ZM336372] (first compound 0.1 µM, partner dose 2 µM)	62.5	92.8	93.9	117	94	107	54.3	85.8	92.7	88.4
C[C@@H](Oc1cc(-c2cnn(C3CCNCC3)c2)cnc1N)c1c(Cl)ccc(F)c1Cl [Crizotinib] + NCC(=O)Nc1ccc(-n2nc(C(F)(F)F)cc2-c2ccc3c(ccc4ccccc43)c2)cc1 [OSU03012] (first compound 0.2 µM, partner dose 1 µM)	86.1	63.1	99.8	92	75.5	61.8	62.6	88.8	120	74.5
C[C@@H](Oc1cc(-c2cnn(C3CCNCC3)c2)cnc1N)c1c(Cl)ccc(F)c1Cl [Crizotinib] + CCN(CC)CCCCNc1ncc2cc(-c3cc(OC)cc(OC)c3)c(NC(=O)NC(C)(C)C)nc2n1 [PD173074] (first compound 0.2 µM, partner dose 0.1 µM)	101	103	101	122	99	102	113	91.4	78.7	82.4
CS(=O)(=O)CCNCc1ccc(-c2ccc3ncnc(Nc4ccc(OCc5cccc(F)c5)c(Cl)c4)c3c2)o1 [lapatinib] + COc1ccc2c(c1)CCC1C2CCC2(C)C(NCCCCCCN3C(=O)C=CC3=O)CCC12 [U73122] (first compound 0.8 µM, partner dose 0.4 µM)	87.8	87.9	90	111	90.9	93.4	84.2	93.9	88.6	91.9
CS(=O)(=O)CCNCc1ccc(-c2ccc3ncnc(Nc4ccc(OCc5cccc(F)c5)c(Cl)c4)c3c2)o1 [lapatinib] + COc1cc(N2CCC(N3CCN(C)CC3)CC2)ccc1Nc1ncc(Cl)c(Nc2ccccc2S(=O)(=O)C(C)C)n1 [NVP-TAE684] (first compound 0.8 µM, partner dose 0.08 µM)	94.2	89.5	86	84.2	89.4	83.5	100	82.9	58.8	81.9
C=CCNC1=C2C[C@@H](C)C[C@H](OC)[C@H](O)[C@@H](C)/C=C(\C)[C@H](OC(N)=O)[C@@H](OC)/C=C\C=C(/C)C(=O)NC(=CC1=O)C2=O [Tanespimycin] + OCCn1cc(-c2cnc3nnn(Cc4ccc5ncccc5c4)c3n2)cn1 [PF04217903] (first compound 0.002 µM, partner dose 1 µM)	109	93	85.2	105	96.5	102	117	95	109	100
C=CCNC1=C2C[C@@H](C)C[C@H](OC)[C@H](O)[C@@H](C)/C=C(\C)[C@H](OC(N)=O)[C@@H](OC)/C=C\C=C(/C)C(=O)NC(=CC1=O)C2=O [Tanespimycin] + Cc1cc(N2CCOCC2)cc2[nH]c(-c3c(NC[C@@H](O)c4cccc(Cl)c4)cc[nH]c3=O)nc12 [BMS536924] (first compound 0.002 µM, partner dose 0.2 µM)	101	80.7	85.8	84.1	100	82.4	98.4	101	88.7	98.4
CS(=O)(=O)CCNCc1ccc(-c2ccc3ncnc(Nc4ccc(OCc5cccc(F)c5)c(Cl)c4)c3c2)o1 [lapatinib] + Cn1cc(/C=C2\C(=O)Nc3cccnc32)c2ccccc21 [GW441756] (first compound 0.8 µM, partner dose 0.4 µM)	91.2	91.3	92.5	132	81.4	98.9	108	71.7	54.7	87.6
CN1CCN(c2ccc3nc(-c4c(N)c5c(F)cccc5[nH]c4=O)[nH]c3c2)CC1 [Dovitinib] + CO[C@@H]1[C@H](N(C)C(=O)c2ccccc2)C[C@H]2O[C@]1(C)n1c3ccccc3c3c4c(c5c6ccccc6n2c5c31)C(=O)NC4 [Midostaurin] (first compound 0.1 µM, partner dose 0.08 µM)	94	87.4	106	97.1	106	89.1	92.4	84.4	79.5	87.6
CN1CCN(c2ccc3nc(-c4c(N)c5c(F)cccc5[nH]c4=O)[nH]c3c2)CC1 [Dovitinib] + O=C(O)c1ccc(-c2c[nH]c3ncc(-c4ccccc4)cc23)cc1C1CCCC1 [GSK650394] (first compound 0.1 µM, partner dose 0.16 µM)	82	73.9	104	113	94.8	99.3	67.3	85.4	94.9	82.4
CNC(=O)c1cc(Oc2ccc(NC(=O)Nc3ccc(Cl)c(C(F)(F)F)c3)cc2)ccn1 [sorafenib] + OCCn1cc(-c2cnc3nnn(Cc4ccc5ncccc5c4)c3n2)cn1 [PF04217903] (first compound 0.4 µM, partner dose 1 µM)	94.3	99.9	84.1	95.9	103	96.6	121	101	129	92
CNC(=O)c1cc(Oc2ccc(NC(=O)Nc3ccc(Cl)c(C(F)(F)F)c3)cc2)ccn1 [sorafenib] + O=C1NC(=O)/C(=C/c2ccc(-c3ccc(F)cc3O)o2)S1 [AS252424] (first compound 0.4 µM, partner dose 1 µM)	95.2	97.2	102	161	93.9	105	85.2	95.2	76.1	99.6
CN1CCN(c2ccc3nc(-c4c(N)c5c(F)cccc5[nH]c4=O)[nH]c3c2)CC1 [Dovitinib] + Cc1cc(N2CCOCC2)cc2[nH]c(-c3c(NC[C@@H](O)c4cccc(Cl)c4)cc[nH]c3=O)nc12 [BMS536924] (first compound 0.1 µM, partner dose 0.2 µM)	81.1	78.4	112	94.9	104	88.5	75.5	84.3	71.4	81.9
CN1CCN(c2ccc3nc(-c4c(N)c5c(F)cccc5[nH]c4=O)[nH]c3c2)CC1 [Dovitinib] + O=C(Nc1cccc(Cl)c1)Nc1ncc(CCNc2ncnc3ccsc23)s1 [SNS314] (first compound 0.1 µM, partner dose 0.0008 µM)	87.6	97.8	114	90	69.6	96.2	59.9	99.9	71.5	89.3
